The results in this text go back to PubChem BioAssay (NCATS).

Some of the results follow. Shown are side measurements of this screen, not its main read-out; they come without a call. Compounds called inactive in the main read-out are mostly missing here. Potencies come from curve fits of mixed quality, noted in brackets.

The nature of the test: qHTS Assay for Lipid Storage Modulators (AID 1519). As to conditions: Drosophila S3 cells, BODIPY lipid droplet/cell ratio, laser cytometry, cells loaded with oleic acid. Put shortly:
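Cells seeded at 5,000 per well were treated with compounds over a concentration series and loaded with oleic acid (400 uM, as added). Lipid droplet fluorescence (488 nm excitation, 500-530 nm channel) was read by laser-scanning cytometry and normalized to 20 uM Triacsin C.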

The mark [1] stands for this setting: measured here: cell count channel max response.
Where [2] appears, read: measured here: lipid (BODIPY) channel AC50.
Setting [3] is: measured here: lipid channel max response.
Tags give direction and shape of the fitted curve.

In the case of `N#Cc1ccc(CN2CC3(CCN(C(=O)c4cc(C(F)(F)F)cc(C(F)(F)F)c4)CC3)C2)cc1`, the max response under setting [1] was -27% and the max response under setting [3] was -50.6%. For the same molecule, the AC50 under setting [2] was 31.6 µM [falling, single point].
`Cc1cccc(CNc2ncncc2-c2ccc(C(=O)N(C)C)cc2)c1`: the max response under setting [1] was 7.25% and the max response under setting [3] was 14.2%. In addition, the concentration at half-maximal activity (AC50) under setting [2] was 1 µM [rising, full curve, poor fit].
Turning to `O=C(Nc1cccc(F)c1)N1CC[C@@]2(CCCN(C(=O)c3cnccn3)C2)C1`, the max response by setting is: under setting [1], 10.6%; under setting [3], 22.7%. The AC50 under setting [2] was 0.708 µM [rising, full curve, poor fit].
`COCCn1c(=O)c(-c2ccccc2)nc2cncnc21`: the max response amounted to 28% under setting [1] and 32.9% under setting [3]. Besides, under setting [2], the AC50 was 4.47 µM [rising, partial curve].
In the case of `CCCc1ncc(C[n+]2ccccc2C)c(N)n1`, the max response is, setting by setting: under setting [1], 24%; under setting [3], 44.5%. Moreover, the concentration at half-maximal activity (AC50) under setting [2] is 39.8 µM [rising, single point].
Turning to `O=c1c(CCc2ccccc2)nc2cnc(N3CCOCC3)nc2n1-c1ccccc1`, the max response runs as follows: under setting [1], 19.4%; under setting [3], 23%. Further, the half-maximal activity concentration (AC50) under setting [2] was 0.891 µM [rising, full curve, poor fit].
Regarding `O=C(Nc1cccc(F)c1)N1CCC2(CC1)CCN(C(=O)c1ccco1)CC2`, the max response reads like this: under setting [1], 14.5%; under setting [3], 20%. The half-maximal activity concentration (AC50) under setting [2] is 0.01 µM [rising, full curve, poor fit].
`O=C(Nc1ccccc1)N1CC2(CCN(C(=O)c3cc(C(F)(F)F)cc(C(F)(F)F)c3)CC2)C1`: the max response under setting [1] came out at 21.6% and the max response under setting [3] was determined as 32.2%. The AC50 under setting [2] was 5.01 µM [rising, partial curve, poor fit].
For `Cn1c(=O)c(CCc2ccccc2)nc2cnc(N3CCNCC3)nc21`, the max response runs as follows: under setting [1], 12.7%; under setting [3], 18.2%. Under setting [2], the AC50 is 0.0282 µM [rising, full curve, poor fit].
For the molecule `N#CCCn1c(=O)c(-c2ccc(Cl)cc2)nc2cnc(N3CCOCC3)nc21`, the max response under setting [1] turned out to be 25.9% and the max response under setting [3] came out at 34.5%. Moreover, under setting [2], the AC50 was 0.447 µM [rising, partial curve].
With `CC(=O)c1c(O)cc(O)cc1O`, the max response is, setting by setting: under setting [1], 18.4%; under setting [3], 31.1%. The AC50 under setting [2] is 22.4 µM [rising, partial curve, poor fit].
As to `O=c1c(O)c(-c2ccccc2)oc2cc(O)cc(O)c12`, the max response runs as follows: under setting [1], 28.3%; under setting [3], 35.2%. Also, the half-maximal activity concentration (AC50) under setting [2] is 39.8 µM [rising, single point].
For the molecule `COc1cc2cc3c4cc(OC)c(OC)cc4cc[n+]3c(C)c2cc1OC`, the max response under setting [1] is 12.5% and the max response under setting [3] worked out at 30.9%. Also, the AC50 under setting [2] is 28.2 µM [rising, single point].
With `CN1CCN(c2ncc3nc(-c4ccc(Cl)cc4)c(=O)n(CCC#N)c3n2)CC1`, the max response is 29% under setting [1] and 39.2% under setting [3]. Further, the half-maximal activity concentration (AC50) under setting [2] is 20 µM [rising, partial curve, poor fit].
Consider `CC(=O)N1CCC2(CC1)CCN(c1ccc(-c3ccccc3)cc1)CC2`, for which the max response under setting [1] was -32.8% and the max response under setting [3] was -37%. The half-maximal activity concentration (AC50) (measured here: cell number channel AC50) was 39.8 µM [falling, single point].
Turning to `CN1CCN(c2ncc3nc(-c4ccc(Cl)cc4)c(=O)n(C4CC4)c3n2)CC1`, the max response was 28.4% under setting [1] and 39.8% under setting [3]. Besides, the concentration at half-maximal activity (AC50) under setting [2] was 4.47 µM [rising, partial curve, poor fit].
Take `CC(=C(CCOP(=O)(O)O)SC(=O)c1ccccc1)N(C=O)Cc1cnc(C)nc1N`: the max response is 29.9% under setting [1] and 52.7% under setting [3]. Also, the AC50 under setting [2] is 31.6 µM [rising, single point].
In the case of `Oc1ccc(Cl)c2cccnc12`, the max response turned out to be 18.7% under setting [1] and 30.4% under setting [3]. For the same molecule, the half-maximal activity concentration (AC50) under setting [2] is 28.2 µM [rising, single point].
`COc1ccc2[nH]cc(CCNc3cc(-c4ccccc4CN(C)C)ncn3)c2c1`: the max response is, setting by setting: under setting [1], 27.6%; under setting [3], 41.6%. Under setting [2], the AC50 was 6.31 µM [rising, partial curve].
As to `N#Cc1cccc(-c2cc(-n3ccnc3)ncn2)c1`, the max response worked out at 20.9% under setting [1] and 33.9% under setting [3]. Besides, the AC50 under setting [2] was 1.58 µM [rising, full curve, poor fit].
On to `COc1cc2nc(N(C)CCCNC(=O)[C@@H]3CCCO3)nc(N)c2cc1OC`, for which the max response under setting [1] came out at 27.2% and the max response under setting [3] stood at 30.2%. Besides, the concentration at half-maximal activity (AC50) under setting [2] was 1.78 µM [rising, partial curve, poor fit].
Regarding `CCNc1ncc2nc(CCc3ccccc3)c(=O)n(CCC#N)c2n1`, the max response reads like this: under setting [1], 14.2%; under setting [3], 16.9%. The concentration at half-maximal activity (AC50) under setting [2] was 2.24 µM [rising, partial curve].

What is called AC50 is the concentration giving half of the maximal activity seen.
